The chains are these.
B1: chr11:102301342:102301343:-_ENSMUSG00000034685_ENSMUST00000049057|mus_hu|FALSE|FALSE (ssRNA)
RNA: GGGAGUUCUACAGUCCGACGAUCCGGCACCUCUGUCCCAUUACCUGUCAGCAGGUGCACGCUCACAGCAGUCAGGGGCAUCAGCUCCAGCCAGGAGCCAUUGCCUGAGCUGGAGGCCUCAGUGCCCAGGAAGGCAGGGAAAGCCAACAGAGGAUUGAGCAUCA
B2: chr5:138118867:138118868:+_ENSG00000044115_ENST00000302763|hu_mus|motif|central (ssRNA)
RNA: GGGAGUUCUACAGUCCGACGAUCAGCCAAAACAUGGGCCUUCUUAGAACGGCCUCUCUUUUUAUUAGACGGCCCUUUACGGUUGGUGUUUACCAGGGUUGUAACCUGUGUAACAAGAGGCUCCAACAGUCUUUCAACAGCCAGCAACAGAGGAUUGAGCAUCA
B3: chr13:13450785:13450786:-_ENSMUSG00000021306_ENSMUST00000021738|mus_mus|FALSE|FALSE (ssRNA)
RNA: GGGAGUUCUACAGUCCGACGAUCGGCCAGAAGUAUUUAUUGUUAAUACUCUGUGGGGACCUCUUGGCUUGUAGCCUGACUAUAGCAAGCACUGGCUGAGUCAAAGAAGGCACAGUCCUUGCAUCCUACUGAGGUACUGAGGUACAACAGAGGAUUGAGCAUCA
B4: chr8:107054336:107054337:-_ENSMUSG00000031878_ENSMUST00000034349|mus_mus|FALSE|FALSE (ssRNA)
RNA: GGGAGUUCUACAGUCCGACGAUCUGAUCCAAUACCUGGCAGCACCAAGUUUUUAAGAAUUUCAGUUCCUGUAGCCGUUGCAUUUAUUAAGCAAACAUGAGCAGAUUCCAAAGCUUCUUGUCCAUGAUCACCCCACAGCCUCAGCAACAGAGGAUUGAGCAUCA
B5: chr14:78183846:78183847:+_ENSG00000119705_ENST00000557342|hu_hu|hu_hu_hu_mus_False|8_38 (ssRNA)
RNA: GGGAGUUCUACAGUCCGACGAUCUCUCAGAAAUCUUUCUUCAUCAGAUGUUUGAGCUCCGUGCAAAGCCUUUGCUCUUUGAGCUUGAACGUGGAUCUUUACUCCAUAAAGCACUGUCAGAAAAGGUUGUAGUGCAUUUAAAGACAACAGAGGAUUGAGCAUCA
B6: chr1:187193504:187193505:+_ENSMUSG00000026615_ENSMUST00000046514|mus_hu|motif|central (ssRNA)
RNA: GGGAGUUCUACAGUCCGACGAUCAUCAAUCUCAGUAUGUUCCAUCAGAUUAGAGCCAUAUAACCCAGCUGUAGUUGCAACUCGGGCCAAGUAGCGAAGUAUAGAAUUCACAUCUGUGAAUAUCACAUUUUCAGAAACAUGAAGCAACAGAGGAUUGAGCAUCA
B7: chr2:173053163:173053164:-_ENSMUSG00000038400_ENSMUST00000036248|mus_mus|motif|central (ssRNA)
RNA: GGGAGUUCUACAGUCCGACGAUCGAGCUUCUGCAUUCAGACCACACAGAACAUGUAAAUAUUUAUACACAGACAGGAGAACGGCCACACGGCCACUCAGCCUGUGUGUCCCCUGACUUCCUCUCUCUUCUCUCUUAAGAAGUGCAACAGAGGAUUGAGCAUCA
B8: chrX:153608698:153608699:+_ENSG00000102119_ENST00000428228|hu_mus|FALSE|FALSE (ssRNA)
RNA: GGGAGUUCUACAGUCCGACGAUCUAAAGAAGAGAAAAUGUCAUCACGCACCUGGUGAUGGAAGGUAUCAGCAUCUACAAGUGAGGUCCCCGGCUGGCGGAAGCUCUUGGACAUGCCCACAGACUCAGGCUCCCCGUAUGUCUUCAACAGAGGAUUGAGCAUCA
B9: chr2:18084439:18084440:+_ENSMUSG00000026743_ENSMUST00000114669|mus_hu|FALSE|FALSE (ssRNA)
RNA: GGGAGUUCUACAGUCCGACGAUCGAGCAAUGUAGGAGAUUUCUGCAGACUAGAGCUUGUUAUGCUUCCUGCAGCUGAUGCUACAGAUGAUGUUGGUGAAGCAGAAGAAACUGAGAGAUGAGAAACAUUCUCUUGAUUUUUGUUCAACAGAGGAUUGAGCAUCA
B10: chr5:74638446:74638447:+_ENSG00000113161_ENST00000287936|hu_hu|motif|central (ssRNA)
RNA: GGGAGUUCUACAGUCCGACGAUCAGGGAUGGGAGGCCACAAAGAGGCCAUGCAUUCGAAAAAGUCUUGACAACAUUGUAGCGGCAGAAUCCUUGGAUCCUCCAGAUCUCACUAGAGGCCACCGAACCCCGGCGCCGACGCUCACAACAGAGGAUUGAGCAUCA
B11: chr8:104447970:104447971:+_ENSG00000164934_ENST00000297579|hu_hu|hu_hu_hu_mus_False|68_68 (ssRNA)
RNA: GGGAGUUCUACAGUCCGACGAUCAUACACUUCCCUGCUUCGGCUCUUGUCCACAGGAAAGAUUCUAAUAGAUUUAUCAAAGCUGGCAGACACAAAUUCCUUCCCAGUGGGAGAGUAGUCCACAUCAAGUACUGCAGACACGUGCAACAGAGGAUUGAGCAUCA
B12: chr15:103022988:103022989:-_ENSMUSG00000009575_ENSMUST00000118152|mus_mus|FALSE|FALSE (ssRNA)
RNA: GGGAGUUCUACAGUCCGACGAUCCUGUCCUAGGUCAGCCUGGAAAAUGGAAGCAACAAUAUCAAUCCACACUACCAAGACAAUCAGCACAAGUCAUCCAUGAGAAUAGGACCUUAACUCCUGCCUGCAGAGAAAGACAUGAAGCAACAGAGGAUUGAGCAUCA
B13: 68738906_68739026_1707_CDS_ENSMUSG00000022054_ENSMUST00000022638|mouse|control|control (ssRNA)
RNA: GGGAGUUCUACAGUCCGACGAUCCUCCUUAGCUUCUGCUUCCUCUCCUUCACCUUCUGCCUCGGUUUCUCCUUCUUCUUCUUCCUGCUCACCUUCAUCUUUUUCACUGGAGCCUUCCUUCUCAGAUCCCCCCUCUUCUGCCUGCAACAGAGGAUUGAGCAUCA
B14: chr17:65740002:65740003:+_ENSG00000130935_ENST00000581375|hu_hu|hu_hu_hu_mus_False|1_88 (ssRNA)
RNA: GGGAGUUCUACAGUCCGACGAUCAACAAAUCUUUCUUCCCUGGACGCAAGAGUUCAUUCAUAUUAAAAAAAAUAUAUAUCCAUCAAGUUAGGUGUGGUGGCCACACCUUUACUCCCAGCACUUUGGGAGGUGGAUCCUCUAUUCAACAGAGGAUUGAGCAUCA

The other results are listed elsewhere or left out.

The source of these data is paper PMC12136788.

For this test, the target named is T1, UNK ZnF1-3 (human, UniProt Q9C0B0 31-174).
T1 sequence: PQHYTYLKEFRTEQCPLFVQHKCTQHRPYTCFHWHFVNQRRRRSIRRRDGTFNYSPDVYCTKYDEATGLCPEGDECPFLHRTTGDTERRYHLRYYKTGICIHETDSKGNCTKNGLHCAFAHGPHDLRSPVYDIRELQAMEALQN
Put plainly: nsRBNS (natural sequence RNA bind-n-seq); RBNS binding buffer (assumed for nsRBNS): 25 mM Tris pH 7.5, 150 mM KCl, 3 mM MgCl2, 0.01% Triton X-100, 500 ug/ml BSA, 20 U/ml SUPERase-In, 4 C; UNK is unkempt and MSI1 is Musashi-1; names of the RNAs are library labels; protein concentration not given here; high values mean tight binding.
Take B1: the binding signal was 0.896 enrichment R.

As to B2, the binding signal was 1.13 enrichment R.

B3 showed a binding signal of 0.896 enrichment R.

In turn, B4 yielded a binding signal of 1.57 enrichment R.

The molecule B5 returned a binding signal of 0.727 enrichment R.

For the molecule B6, the binding signal worked out at 1.25 enrichment R.

On to B7, for which the binding signal is 0.889 enrichment R.

Molecule B8 displayed a binding signal of 1.28 enrichment R.

For the molecule B9, the binding signal stood at 0.977 enrichment R.

B10: the binding signal amounted to 1.14 enrichment R.

B11 displayed a binding signal of 1.31 enrichment R.

In turn, B12 yielded a binding signal of 1.46 enrichment R.

With B13, the binding signal stood at 0.321 enrichment R.

Molecule B14 showed a binding signal of 1.1 enrichment R.
